This is an account of results in article PMC4336329 (PLoS ONE, 2015).

The campaign covered roughly 310,000 compounds. About 2,200 (0.71%) showed an effect of 50% or more. The effect is printed as a negative number. This is one part of the list.

The target of this test is human ether-à-go-go-related gene (hERG) potassium channel (human, UniProt Q12809). The test is described as follows: primary screen, population patch clamp on CHO cells stably expressing hERG.
Sequence of human ether-à-go-go-related gene (hERG) potassium channel (Q12809 whole entry, looked up): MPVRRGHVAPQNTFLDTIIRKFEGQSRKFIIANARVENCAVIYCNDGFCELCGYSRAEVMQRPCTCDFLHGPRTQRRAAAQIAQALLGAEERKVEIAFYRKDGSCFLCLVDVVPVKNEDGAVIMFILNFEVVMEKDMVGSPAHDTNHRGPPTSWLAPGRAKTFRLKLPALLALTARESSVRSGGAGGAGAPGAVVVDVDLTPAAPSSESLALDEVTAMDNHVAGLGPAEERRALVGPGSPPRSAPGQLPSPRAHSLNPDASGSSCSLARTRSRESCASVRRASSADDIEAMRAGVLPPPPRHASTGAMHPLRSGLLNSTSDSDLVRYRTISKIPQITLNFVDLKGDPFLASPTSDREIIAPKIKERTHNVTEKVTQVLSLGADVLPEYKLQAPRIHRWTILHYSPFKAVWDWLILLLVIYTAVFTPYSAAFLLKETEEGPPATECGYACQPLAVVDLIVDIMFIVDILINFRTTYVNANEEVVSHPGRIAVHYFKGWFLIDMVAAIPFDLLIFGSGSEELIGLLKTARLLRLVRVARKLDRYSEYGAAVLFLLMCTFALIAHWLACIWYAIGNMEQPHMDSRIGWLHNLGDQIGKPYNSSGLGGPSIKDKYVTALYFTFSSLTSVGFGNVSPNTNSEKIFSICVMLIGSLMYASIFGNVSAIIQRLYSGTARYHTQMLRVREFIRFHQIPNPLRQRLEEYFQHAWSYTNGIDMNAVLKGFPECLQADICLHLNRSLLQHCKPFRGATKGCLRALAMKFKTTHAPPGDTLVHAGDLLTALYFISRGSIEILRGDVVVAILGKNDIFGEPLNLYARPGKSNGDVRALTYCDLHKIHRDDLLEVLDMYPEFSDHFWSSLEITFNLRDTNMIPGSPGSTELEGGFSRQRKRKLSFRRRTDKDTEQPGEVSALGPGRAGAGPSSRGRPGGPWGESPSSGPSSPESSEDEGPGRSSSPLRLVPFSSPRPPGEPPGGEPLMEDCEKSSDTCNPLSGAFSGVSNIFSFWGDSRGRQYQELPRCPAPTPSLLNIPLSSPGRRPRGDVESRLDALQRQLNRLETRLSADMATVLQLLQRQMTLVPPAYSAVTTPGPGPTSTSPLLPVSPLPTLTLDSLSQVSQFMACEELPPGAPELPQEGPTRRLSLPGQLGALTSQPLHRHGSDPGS
`CCc1noc(C)c1C(=O)N(C)CC(=O)Nc1ccc(Br)cc1C`: the “hERG current change (%, negative = inhibition) at 1uM” value was 15.2%.

In the case of `Cc1cc(C)nc(N2CCC(C(=O)Nc3ccc(Oc4ccccc4)cc3)CC2)n1`, the “hERG current change (%, negative = inhibition) at 1uM” value amounted to 7.83%.

On to `Cc1nnc(NC(=O)CC23CC4CC(CC(C4)C2)C3)s1`, for which the “hERG current change (%, negative = inhibition) at 1uM” value was 10.4%.

Take `Cc1cc(C)cc(NC(=O)CN2CCC(NC(=O)Cc3ccccc3)CC2)c1`: the “hERG current change (%, negative = inhibition) at 1uM” value is on record as -1.89%.

For the compound `Cn1c(CNS(=O)(=O)c2ccc(F)cc2)n[nH]c1=S`, the “hERG current change (%, negative = inhibition) at 1uM” value is 19.3%.

For the compound `C/C(=N/NC(=O)CNS(=O)(=O)c1ccccc1)c1ccc(Br)cc1`, the “hERG current change (%, negative = inhibition) at 1uM” value worked out at 11%.

`CCc1nc(NCC(C)C)c(C#N)c2c1COC(C)(C)C2`: the “hERG current change (%, negative = inhibition) at 1uM” value turned out to be 6.38%.

As to `COc1ccc(OC)c(NC(=O)CSc2nnc(-c3ccco3)o2)c1`, the “hERG current change (%, negative = inhibition) at 1uM” value is listed as 7.18%.

Take `CC(C)(C)NC(=O)CN(C(=O)CS(=O)CC(=O)Nc1ccc(F)cc1)c1ccccc1F` (stereo not shown): the “hERG current change (%, negative = inhibition) at 1uM” value worked out at 2.83%.

Turning to `Cc1ccccc1S(=O)(=O)N1CCN(C)CC1`, the “hERG current change (%, negative = inhibition) at 1uM” value came out at 11.3%.

For `COc1ccc(C2C(C(=O)c3ccco3)=C(O)C(=O)N2CCCn2ccnc2)c(OC)c1` (stereo not shown), the “hERG current change (%, negative = inhibition) at 1uM” value was 13.9%.

In the case of `O=C(/C=C/Nc1ccc(F)c(F)c1)c1ccc(Br)cc1`, the “hERG current change (%, negative = inhibition) at 1uM” value turned out to be 5.16%.

Regarding `Cc1cccc(OCC(=O)NC(=S)Nc2ccc(S(=O)(=O)NC3CCCCC3)cc2)c1`, the “hERG current change (%, negative = inhibition) at 1uM” value came out at 11.2%.

Turning to `N#Cc1c(N)c(C#N)c(-c2ccc3c(c2)OCO3)c2c1CCCC2`, the “hERG current change (%, negative = inhibition) at 1uM” value is reported as 7.46%.

On to `O=C(Cn1c(=O)oc2cc(S(=O)(=O)N3CCCC3)ccc21)N1CCCC1`, for which the “hERG current change (%, negative = inhibition) at 1uM” value is 13.9%.

`Cc1cc(C)c2c(=O)[nH]c(SCC(=O)c3ccc(C(C)C)cc3)nc2n1`: the “hERG current change (%, negative = inhibition) at 1uM” value is listed as 7%.

Regarding `CC(=O)c1cc(-c2ccccc2)n(CC(=O)NC2CCCC2)c1C`, the “hERG current change (%, negative = inhibition) at 1uM” value turned out to be 10.7%.

In the case of `CCCCNC(=O)CSc1nnc(Cc2ccccc2)n1CC1CCCO1` (stereo not shown), the “hERG current change (%, negative = inhibition) at 1uM” value turned out to be 16.4%.

For `CCC(C)NCCOCCSc1ccc(Cl)cc1.O=C(O)C(=O)O` (stereo not shown), the “hERG current change (%, negative = inhibition) at 1uM” value was -22.6%.

Turning to `Nn1cc(-c2ccccc2)nc1SCC(=O)NC1CCS(=O)(=O)C1` (stereo not shown), the “hERG current change (%, negative = inhibition) at 1uM” value turned out to be 7.62%.

For `CCOc1ccc(OCCC(=O)OC(C)C(=O)Nc2ccc(C(C)=O)cc2)cc1` (stereo not shown), the “hERG current change (%, negative = inhibition) at 1uM” value amounted to 3.51%.

For the compound `CC1(C)CCC(=O)N(c2ccc(OC(F)(F)F)cc2)C1=O`, the “hERG current change (%, negative = inhibition) at 1uM” value came to 12.6%.

`Cc1cccc(C(=O)NCC(=O)OCC(=O)N(C)CC(=O)Nc2ccccc2Cl)c1`: the “hERG current change (%, negative = inhibition) at 1uM” value is 2.24%.

For `CCOC(=O)c1c(C)nn(Cc2cccc(Cl)c2)c1N`, the “hERG current change (%, negative = inhibition) at 1uM” value is listed as 3.66%.

Regarding `O=C(Nc1ccc2c(c1)OCCO2)c1cccc(S(=O)(=O)N2CCOCC2)c1`, the “hERG current change (%, negative = inhibition) at 1uM” value is -5.81%.

For the compound `NNC(=O)c1ccc(Oc2cc(Cl)cc(Cl)c2)o1`, the “hERG current change (%, negative = inhibition) at 1uM” value came to 2.4%.

Consider `O=[N+]([O-])c1ccc(N2N=C(c3ccccc3)CC2c2ccccc2O)cc1` (stereo not shown), for which the “hERG current change (%, negative = inhibition) at 1uM” value stood at 8.01%.

Take `CCN(CC)CCCNC(=O)c1cn(CC(C)C)c(=O)c2c1c1ccccc1n2C`: the “hERG current change (%, negative = inhibition) at 1uM” value was determined as 3.56%.

For `COc1ccccc1-c1oc2ccccc2c1C#CCCCCO`, the “hERG current change (%, negative = inhibition) at 1uM” value is reported as 23%.

Consider `Cc1ccc(NC(=O)CSc2nnc(-c3cnccn3)n2C)cc1C`, for which the “hERG current change (%, negative = inhibition) at 1uM” value was 22.4%.

Take `CC1=C(C(=O)Nc2cccnc2)C(c2cccnc2)n2nc(-c3cccs3)nc2N1` (stereo not shown): the “hERG current change (%, negative = inhibition) at 1uM” value worked out at 12.1%.

For `CCCc1nc(SCC(=O)Nc2nnc(SCC)s2)c2c(=O)n(C)c(=O)n(C)c2n1`, the “hERG current change (%, negative = inhibition) at 1uM” value was 10%.

Turning to `COc1ccccc1NC(=O)C12CC3CC(C1)CC(c1ccc(C)cc1)(C3)C2`, the “hERG current change (%, negative = inhibition) at 1uM” value was 8.48%.

Regarding `COc1ccc(-c2cc(C(=O)NCC3CCCO3)c3cc(C)ccc3n2)cc1` (stereo not shown), the “hERG current change (%, negative = inhibition) at 1uM” value was 12.1%.

As to `CN1CCN(S(=O)(=O)c2ccc(Sc3nnc(-c4cccs4)n3-c3ccccc3)nc2)CC1`, the “hERG current change (%, negative = inhibition) at 1uM” value was 8.01%.

Regarding `Cc1ccc([N+](=O)[O-])cc1NC(=O)c1cccnc1`, the “hERG current change (%, negative = inhibition) at 1uM” value is reported as 9.15%.

`CC/C(=C(/CC)c1ccc(O)cc1)c1ccc(O)cc1`: the “hERG current change (%, negative = inhibition) at 1uM” value was 16%.

As for `CCCN(CCC)S(=O)(=O)c1ccc(C(=O)NCc2ccco2)cc1`, the “hERG current change (%, negative = inhibition) at 1uM” value was determined as 14.1%.

`CCOC(=O)C1=C(C)N=C2SC(C)C(=O)N2C1/C=C/c1ccccc1OC` (stereo not shown): the “hERG current change (%, negative = inhibition) at 1uM” value is given as 11.5%.

Consider `Cn1c(C(=O)NCCN2CCN(Cc3ccccc3)CC2)cc2c(=O)n(C)c3ccccc3c21`, for which the “hERG current change (%, negative = inhibition) at 1uM” value came to 5.29%.

For `Cc1cc(CNC(=O)Cc2ccccc2)c2ccccc2n1`, the “hERG current change (%, negative = inhibition) at 1uM” value is on record as -12.1%.

As for `CC1(C)SC2c3ccccc3C(=O)N2[C@@H]1C(=O)O` (stereo partly shown), the “hERG current change (%, negative = inhibition) at 1uM” value is on record as 12.8%.

Regarding `Cc1ccc(CNC(=O)c2ccccc2CCc2ccccc2)cc1`, the “hERG current change (%, negative = inhibition) at 1uM” value is given as -6.69%.

`CC[N+](CC)(CC)C/C(N)=N/O.[Cl-]`: the “hERG current change (%, negative = inhibition) at 1uM” value was determined as 11.1%.

With `Cc1ccc(N2C(=O)C(O)(C(F)(F)F)C3=C2CC(C)(C)CC3=O)cc1` (stereo not shown), the “hERG current change (%, negative = inhibition) at 1uM” value is listed as 13%.

In the case of `Cc1cccc(N2C(=O)NC(=O)C3(Cc4cc(C)ccc4N(C)C3)C2=O)c1` (stereo not shown), the “hERG current change (%, negative = inhibition) at 1uM” value is listed as 13.2%.

Regarding `COc1cc(C(=O)Nc2ccccc2C2COC(=O)C2=N)cc(OC)c1OC` (stereo not shown), the “hERG current change (%, negative = inhibition) at 1uM” value is on record as 4.85%.

In the case of `CN(C)c1nc(Oc2ccc(/C=N/O)cc2)nc(N(C)C)n1`, the “hERG current change (%, negative = inhibition) at 1uM” value was found to be 11.2%.

On to `CC12CS(=O)(=O)CC1SC(=S)N2Cc1ccccc1` (stereo not shown), for which the “hERG current change (%, negative = inhibition) at 1uM” value was 5.71%.

In the case of `O=C(Nc1ccc2[nH]ccc2c1)c1ccccc1`, the “hERG current change (%, negative = inhibition) at 1uM” value worked out at 19.6%.

`CC(C)c1ccccc1NC(=O)CNCCOc1ccccc1F.O=C(O)C(=O)O`: the “hERG current change (%, negative = inhibition) at 1uM” value turned out to be 14%.

In the case of `O=C(NCc1ccccc1)c1ccc(F)c(F)c1`, the “hERG current change (%, negative = inhibition) at 1uM” value amounted to 12.9%.

`Cc1cccc(NCc2cccc3ccccc23)n1`: the “hERG current change (%, negative = inhibition) at 1uM” value was 16.2%.

Consider `CCCCCCNC(=O)C(C#N)c1nc2ccccc2nc1N1CCOCC1` (stereo not shown), for which the “hERG current change (%, negative = inhibition) at 1uM” value is 9.49%.

As to `CSc1nnc(C)c(=O)n1COC(=O)c1cc(Cl)ccc1[N+](=O)[O-]`, the “hERG current change (%, negative = inhibition) at 1uM” value was 12.6%.

For the compound `CCOCc1nnc(NC(=O)CSc2ccccc2)s1`, the “hERG current change (%, negative = inhibition) at 1uM” value turned out to be 4.8%.

As to `COC(=O)c1c(C)oc(C)c1S(=O)(=O)NCc1ccc(Cl)cc1`, the “hERG current change (%, negative = inhibition) at 1uM” value came to 7.45%.

In the case of `COc1ccc(CN(C)C(=O)c2ccc(OCC(=O)Nc3cccc(C(F)(F)F)c3)c(OC)c2)c(OC)c1`, the “hERG current change (%, negative = inhibition) at 1uM” value was 6.3%.
